# Source: publication PMC4336329 (PLoS ONE, 2015)
# Out of some 310,000 compounds screened, about 14,000 (4.5%) showed an effect of 50% or more. Effects have a minus sign here. Some of the results follow.
# Biological target: human ether-à-go-go-related gene (hERG) potassium channel (human, UniProt Q12809)
# Assay: primary screen, population patch clamp on CHO cells stably expressing hERG
# 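Further: peak tail current of the secondary pulse compared with the same well before compound.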
# human ether-à-go-go-related gene (hERG) potassium channel, sequence (Q12809 whole entry, looked up): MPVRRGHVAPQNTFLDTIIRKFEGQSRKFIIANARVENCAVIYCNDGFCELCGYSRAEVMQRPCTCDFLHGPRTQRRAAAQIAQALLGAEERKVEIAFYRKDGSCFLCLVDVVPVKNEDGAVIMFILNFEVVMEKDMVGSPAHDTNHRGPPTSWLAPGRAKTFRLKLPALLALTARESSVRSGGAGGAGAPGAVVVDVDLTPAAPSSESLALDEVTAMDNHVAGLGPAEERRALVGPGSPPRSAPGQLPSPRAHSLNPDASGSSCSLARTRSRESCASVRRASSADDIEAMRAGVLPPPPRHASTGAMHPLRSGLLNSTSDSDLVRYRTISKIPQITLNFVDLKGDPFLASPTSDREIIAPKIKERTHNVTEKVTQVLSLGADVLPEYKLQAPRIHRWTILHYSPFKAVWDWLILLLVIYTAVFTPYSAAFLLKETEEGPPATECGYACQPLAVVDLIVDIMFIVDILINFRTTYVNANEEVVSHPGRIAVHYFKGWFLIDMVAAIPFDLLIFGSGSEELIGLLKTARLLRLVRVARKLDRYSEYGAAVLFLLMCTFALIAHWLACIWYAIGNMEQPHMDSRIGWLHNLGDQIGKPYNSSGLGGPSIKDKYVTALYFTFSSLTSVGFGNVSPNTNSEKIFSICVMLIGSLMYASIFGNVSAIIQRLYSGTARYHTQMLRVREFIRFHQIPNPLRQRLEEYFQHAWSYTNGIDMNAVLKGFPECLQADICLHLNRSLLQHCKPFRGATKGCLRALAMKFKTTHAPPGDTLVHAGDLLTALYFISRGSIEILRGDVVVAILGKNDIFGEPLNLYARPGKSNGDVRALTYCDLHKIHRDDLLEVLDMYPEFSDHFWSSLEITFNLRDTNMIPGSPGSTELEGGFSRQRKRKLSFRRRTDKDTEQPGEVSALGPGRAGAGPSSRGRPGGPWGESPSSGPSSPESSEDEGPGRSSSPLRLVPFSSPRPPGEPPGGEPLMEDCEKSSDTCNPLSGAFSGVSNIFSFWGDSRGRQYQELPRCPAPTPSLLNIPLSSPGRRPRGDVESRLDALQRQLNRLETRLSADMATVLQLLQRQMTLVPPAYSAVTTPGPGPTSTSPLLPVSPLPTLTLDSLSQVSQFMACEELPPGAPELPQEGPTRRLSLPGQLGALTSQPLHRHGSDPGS
row,Structure (SMILES),"hERG current change (%, negative = inhibition) at 10uM"
1,N#C/C(=C(/O)COc1ccc(Br)cc1)c1nnc2n1CCCCC2,17.1%
2,Cn1c(=O)c2c(SCc3ccccn3)nc(C3CC3)nc2n(C)c1=O,6.51%
3,CCOC(=O)C1CCN(C(=O)c2cn(CCOC)c(=O)c3c2c2ccccc2n3C)CC1,-15.5%
4,C/C(=N\NC(=O)c1c(Cl)cnn1C)c1ccc(NC(=O)c2ccncc2)cc1,-1.23%
5,O=C(CN1C(=O)C2CCCCC2C1=O)Nc1cc(C(F)(F)F)ccc1N1CCCC1 (stereo not drawn),-9.2%
6,CCOC(=O)c1sc(NS(=O)(=O)c2ccccc2Cl)nc1C,-5.74%
7,CCOc1ccc(NC(=O)Cn2c(=O)n(CCCC(=O)NC3CCN(Cc4ccccc4)CC3)c(=O)c3ccccc32)cc1,-38%
8,O=C(COc1ccccc1)Nc1nnc(S(=O)(=O)N2CCCCCC2)s1,2.36%
9,CC(=O)Nc1cnc(NC(=O)c2cccc(F)c2)cc1C,10.5%
10,Cc1cc(-c2ccccc2)nc(SCc2ccc(C(=O)O)o2)n1,-3.89%
11,COc1ccc(C(=O)Nc2ccc(NC(=O)C(C)C)nc2)cc1,18.9%
12,CC(C)N1C(=O)C2C(C(=O)NC3CCCCC3)C3C=CC2(O3)C1C(=O)NC1CCCC1 (stereo not drawn),-2.54%
13,CCOC(=O)c1cnc(-n2nc(C)cc2C)nc1-n1nc(C)cc1C,-12.8%
14,CC(=O)Nc1ccc(S(=O)(=O)N2CCN(c3cc(C)nc4ncnn34)CC2)cc1,-27.9%
15,COc1cc2[nH]c3ccccc3c2cc1C,2.45%
16,CCOC(=O)CCCNC(=O)COC(=O)c1cccc(F)c1,6.75%
17,CSc1ncc(C(=O)Nc2ccc(C(C)=O)cc2)c(-c2ccccc2)n1,6.5%
18,CCCCc1nc2c(C)c(N)cnc2n1Cc1cccc([N+](=O)[O-])c1,-44.1%
19,CS(=O)(=O)N(CC(=O)N1CCCC1)Cc1ccccc1,7.66%
20,COc1ccc(CCNC(=O)C2CCCN(S(C)(=O)=O)C2)cc1 (stereo not drawn),-5.59%
21,O=C(Cc1ccc(S(=O)(=O)N2CCCC2)s1)NC1CCCCCC1,-31.4%
22,Cc1cc(C)c(C(=O)O)c(Cl)n1,5.94%
23,O=C(CSc1n[nH]c(=O)[nH]c1=O)Nc1ccc(Br)cc1Br,9.39%

row,Structure (SMILES),"hERG current change (%, negative = inhibition) at 10uM"
1,CCCC(=O)N1c2ccccc2[C@@H](N(C(C)=O)c2ccccc2)C[C@H]1C,-4.91%
2,C/C(=N\NC(=O)c1cccs1)c1ccc(C(=O)O)s1,28.3%
3,COc1cccc2cc(C(=O)NCc3ccccc3Cl)c(=O)oc12,6.78%
4,Cc1onc(-c2c(Cl)cccc2Cl)c1C(=O)Nc1ccc(N2CCOCC2)cc1,-9.68%
5,CC(/C=C1\SC(=S)N(NC(=O)c2ccc(O)cc2)C1=O)=C\c1ccccc1,-6.1%
6,O=C(CS(=O)(=O)Cc1ccccc1)Nc1nc2c(s1)CCCC2,-12.1%
7,COC(C[C@@H]1O[C@H]1C(=O)[C@@H](C)OCc1ccccc1)OC,14.2%
8,COc1cccc(C2C3=C(N=c4s/c(=C\c5cccc(O)c5)c(=O)n42)c2ccccc2CC3)c1OC (stereo not drawn),29.1%
9,Cn1ccc2ccc(C3=CC(=O)C[C@H](c4ccc(F)cc4)C3)cc21,8.46%
10,CSc1nnnn1-c1c(C)cccc1C,12.9%
11,Nc1cccc(C(=O)Nc2ccco2)c1,-2.33%
12,O=C(NCc1ccco1)/C(=C/c1cccnc1)NC(=O)c1cccc(Br)c1,-59.6%
13,CCOC(=O)C1=C(C)NC(=S)N(C=O)C1c1ccccc1 (stereo not drawn),22.4%
14,CCn1cc(C(=O)NCc2ccco2)c(=O)c2ccc(C)nc21,16.9%
15,C=CCNC(=O)/C(C#N)=C/c1ccc(OS(=O)(=O)c2ccc(C)cc2)c(OC)c1,12.5%
16,CCCC(=O)Nc1ccc(-c2cn3cccnc3n2)cc1,3.08%
17,CC(=O)CCc1ccc(OCCCOc2cccc3cccnc23)cc1,-11.2%
18,C=CCOC(=O)c1ccc(N2CCN(c3ccccc3)CC2)nc1,12.3%
19,CC(C)c1nc(SCC(=O)N2CCCC2)c2c(=O)n(C)c(=O)n(C)c2n1,-21.8%
20,O=C(CC1C(=O)Nc2ccccc2N1CC(=O)N1CCCC1)Nc1ccc(Br)cc1 (stereo not drawn),-7.16%
21,CCC1CCCCN1CCCNC(=O)c1cc2c(Cl)nc3ccccc3c2s1 (stereo not drawn),-76.6%
22,CC(=O)c1cccc(NC(=O)COc2ccc(S(=O)(=O)N3CCOCC3)cc2)c1,-10.1%
23,CCN(CC)C(=O)CSc1nc(C)cc(C)n1,9.66%

row,Structure (SMILES),"hERG current change (%, negative = inhibition) at 10uM"
1,Cc1cccc(C)c1NC(=O)NCCSc1snnc1C,24.5%
2,C=CCn1c(SCC(=O)N(C)C2CCS(=O)(=O)C2)nnc1-c1ccccc1 (stereo not drawn),16.8%
3,COC(=O)[C@H](CCSC)NC(=O)Nc1ccc(C)cc1C,10.5%
4,O=C(CCCN1C(=O)CCC1=O)Nc1ccc2c(c1)OCCO2,6.3%
5,CCOC(=O)C1=C(c2ccccc2)O/C(=C(/C#N)C(F)(F)F)S1,17.4%
6,Brc1ccc(Cn2c(-c3cncs3)nc3ccccc32)cc1,-0.72%
7,CCC1Oc2ccccc2N(CC(=O)NC2CCCCC2C)C1=O (stereo not drawn),-5.63%
8,CCC(C)n1c(-c2cc(OC)c(OC)c(OC)c2)nc2nc3ccccc3nc21 (stereo not drawn),-50.9%
9,O=c1[nH]cccc1-c1nc2ccccc2[nH]1,12.8%
10,N#CC(CC(=O)c1ccc(F)cc1)c1ccc2c(c1)OCO2 (stereo not drawn),-15.2%
11,CCN(CC)CCNC(=O)CN1C(=O)COc2ccc(S(=O)(=O)N3CCOCC3)cc21,18.2%
12,Cc1ccc(N2C(=O)c3cccc4c(Oc5ccccc5[N+](=O)[O-])ccc(c34)C2=O)c(C)c1,3.74%
13,CC(C)c1onc(C(=O)NCc2ccccn2)c1[N+](=O)[O-],-1.61%
14,Cn1c2ccccc2c2cc(C(=O)N3CCOCC3)sc21,9.07%
15,COc1ccc(NS(=O)(=O)c2cc(NC(=O)CCNC(C)=O)ccc2N2CCCCC2)cc1,-21.8%
16,CC1(C)Cc2cccc(OCC(=O)N3CCN(S(=O)(=O)c4ccccc4F)CC3)c2O1,-14.6%
17,Cc1cccc(CSc2nc(N)c(C#N)c(-c3cccs3)c2C#N)c1,-10%
18,CCC1=C(c2cc(OC)c(OC)c(OC)c2)C2(CCCC2)C(=O)O1,-29.2%
19,CC(=O)Nc1cccc(-c2nnc(-c3ccc(C)cc3)o2)c1,3.08%
20,CNS(=O)(=O)c1ccc(NC(=O)Nc2cccc(F)c2)cc1,12.9%
21,COc1cccc(C(=O)NNC(=O)C(=O)Nc2ccc(C)cc2)c1,9.51%
22,COc1ccc(CC(=S)N2CCOCC2)cc1F,0.299%
23,Brc1ccc(-c2ccc(CNCc3ccccn3)o2)cc1.Cl,-27.3%

row,Structure (SMILES),"hERG current change (%, negative = inhibition) at 10uM"
1,Cc1ccc(O)c(-c2cc(C(=O)NCc3ccc4c(c3)OCO4)[nH]n2)c1,-4.87%
2,Cc1cc(OCC(=O)O/N=C(\N)Cc2cccs2)ccc1Br,10.5%
3,Cn1cccc1C(=O)NC(=O)CSc1cccc[n+]1[O-],12%
4,O=C(CN1CCN(Cc2cccc(Cl)c2)C1=O)NCc1cccs1,-25.8%
5,O=C(c1cccs1)N1CCN(C2CCN(Cc3ccccc3)CC2)CC1,-64.3%
6,CCOc1nc(-c2ccc(C)cc2)ccc1-c1noc(COC)n1,-2.63%
7,Cc1ccc(CN(CC(=O)NC2CCCC2)C(=O)c2csnn2)cc1,-3.38%
8,Cc1ccc(-c2cc(N)n(-c3ccc(F)cc3)n2)cc1,-1.66%
9,COc1ccccc1C1CC(=O)NC(C)=C1C(=O)OC(C)C (stereo not drawn),3.24%
10,CC(C)(C)OC(=O)N1CC2Cc3[nH]c(=O)ccc3C(C2)C1 (stereo not drawn),5.99%
11,CC(C)(C)NC(=O)NC(=O)COC(=O)C1CCN(S(=O)(=O)c2cccs2)CC1,9.39%
12,CCOc1ccc(C(C)NC(=O)C2CCCC2)cc1 (stereo not drawn),3.62%
13,Cc1ccc2ccc(C3C(=O)c4ccccc4C3=O)nc2c1,12.7%
14,CCCCn1c(C23CC4CC(CC(C4)C2)C3)n[nH]c1=S,-5.15%
15,COc1ccc(CCN(C(=O)/C=C/C(=O)O)C2CC(=O)N(c3ccccc3)C2=O)cc1 (stereo not drawn),12.5%
16,O=C(Nc1ccc(Cl)cc1)c1ccc2ncsc2c1,8.99%
17,CCOc1ccc(C(C)=O)cc1COc1ccc(C)nc1[N+](=O)[O-],3.57%
18,CC1CC(C)(C)N2C(=O)C3(Nc4ccccc4S3)c3cccc1c32 (stereo not drawn),22.1%
19,N#CC1=C2N=C(N)c3ccccc3N2C2=C(C(=O)CCC2)C1c1ccc(Cl)cc1 (stereo not drawn),-13.6%
20,COC(=O)c1cccc(OCC(O)Cn2ccnc2)c1 (stereo not drawn),-3.46%
21,C=CCn1c(SCc2cc(=O)n3ccsc3n2)nc2scc(C3CC3)c2c1=O,-9.75%
